Results: PubChem BioAssay AID686979 (National Center for Advancing Translational Sciences (NCATS), 2013)
In all, about 420,000 compounds went through this assay and about 50,000 (12%) were called active. Inconclusive means that the source gave no clear call. Such entries were picked first, then a sample of the others. Calls follow the shape of the dose curve; as a rule, active = well fitted inhibition curve with a large enough effect; inconclusive = small, poorly fitted or top-dose-only effect; inactive = flat fitted curve, though single readings scatter. Potencies of inconclusive entries are left out as doubtful fits.

Test: qHTS for Inhibitors of human tyrosyl-DNA phosphodiesterase 1 (TDP1): qHTS in cells in presence of CPT; also: nearly all actives have a fitted effect of over 55% in size
Conditions: chicken DT40 Tdp1-/-;hTDP1 cells + 20 nM CPT, ATP luminescence, 48 h; activity change, negative = growth inhibition: at 46.2 µM (top of the series) unless noted
Outline: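 Chicken DT40 Tdp1-/- cells complemented with human TDP1, 400 cells/well, exposed to compounds plus 20 nM camptothecin for at least 48 h at 37 C; viability read as ATP content by CellTiter-Glo luminescence.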
% is scaled to controls: 0 for no effect and ±100 for the full control effect; potency is read from the fitted curve at half-maximal effect; tags tell the direction and shape of the fitted curve.

Compound | Potency | activity change, negative = growth inhibition
CCOc1ccc(N2C(=O)CC(N)C2=O)cc1 (stereo not given) | active: 1.84 µM | 
Cc1onc(-c2ccccc2Cl)c1C(=O)N1CCN(C/C=C/c2ccccc2)CC1 | inconclusive [inhibitor, single point] | 
COC(=O)Cc1ccc(NC(=S)N2CCN(c3cc(Cl)ccc3C)CC2)cc1 | inconclusive [inhibitor, single point] | 
CC(C)CCn1nnnc1CN1CCN(C(c2ccccc2)c2ccccc2)CC1 | inconclusive [inhibitor, single point] | 
COc1ccc(Cc2nnc(NC(=O)c3ccccc3C)s2)cc1 | inconclusive [inhibitor, partial curve] | 
Cc1ccc(-n2c(C)cc(/C=N/NC(=O)c3ccc(CN4CCOCC4)cc3)c2C)cc1 | inconclusive [inhibitor, single point] | 
O=C(c1ccccc1SCc1ccccc1)N1CCCCCC1 | inconclusive [inhibitor, single point] | 
Cc1ccc(COc2ccc(/C=N/NC(=O)c3nnn(-c4nonc4N)c3COc3ccc(F)cc3)cc2)cc1 | inconclusive [inhibitor, single point] | 
CC1Cc2nc(SCC(=O)Nc3ccc(F)cc3)n(C)c(=O)c2S1 (stereo not given) | active: 23.1 µM | 
CCN(CC)C(=O)C1=C(C)N(CCC2=CCCCC2)C(=O)C(CC(=O)NCC2CCCCC2)C1 (stereo not given) | inconclusive [inhibitor, single point] | 
CC(=O)Nc1ccc(C)cc1-c1nc2ccccc2n(CC(=O)Nc2cc(Cl)ccc2C)c1=O | inconclusive [inhibitor, single point] | 
COc1ccc(-n2cnc(=S)[nH]c2=S)cc1 | active: 0.58 µM | 
CCCN1Cc2cccc(C(=O)Nc3cc(C)cc(C)c3)c2C1=O |  | inactive: -13.6%
Cc1cccc(NS(=O)(=O)c2ccc(C(=O)NCC(c3ccco3)N3CCCCC3)cc2)c1C (stereo not given) | inconclusive [inhibitor, single point] | 
CCOc1ccc(N2C(=O)CC(Sc3nc(CC(C)C)ccc3C#N)C2=O)cc1 (stereo not given) | active: 23.1 µM | 
NS(=O)(=O)c1cccc(NC(=O)COC(=O)Cc2ccc(S(=O)(=O)N3CCOCC3)s2)c1 |  | inactive: 3.02%
CCC(=O)N(C)C[C@H]1Oc2cc(-c3cccnc3)ccc2S(=O)(=O)N([C@H](C)CO)C[C@H]1C |  | inactive: -7.79%
COc1ccc(CC2=C(O)c3ccccc3C(=O)C2=O)cc1 |  | inactive: -18.8%
COc1cccc(Nc2nc(C(N)CC(C)C)cs2)n1 (stereo not given) | active: 16.4 µM | 
COc1ccc(NC(=O)c2ccc(-c3c(C)noc3C)c3ccoc23)cn1 | inconclusive [inhibitor, partial curve, poor fit] | 
OCCC1CN(Cc2cnn(-c3ccccc3Cl)c2)CCN1Cc1ccsc1 (stereo not given) |  | inactive: 3.43%
COC(=O)c1ccccc1Sc1c(/C=N/OCc2ccc(Cl)cc2)c(C(F)(F)F)nn1C | inconclusive [inhibitor, single point] | 
CCOC(=O)Cn1nc(/C=C/c2ccc(C(C)C)cc2)ccc1=O | active: 14.6 µM | 
O=C(O)CCC(=O)N1N=C(c2cccs2)CC1c1cn(-c2ccccc2)nc1-c1ccccc1 (stereo not given) | inconclusive [inhibitor, single point] | 

Compound | Potency | activity change, negative = growth inhibition
O=C(Oc1cccc(NC(=O)c2ccco2)c1)c1cccc(S(=O)(=O)N2CCCC2)c1 |  | inactive: -22%
COc1ccc(Cl)cc1NC(=O)CCC(=O)N1CCOc2ccccc21 | inconclusive [inhibitor, single point] | 
O=S(=O)(CCN1CCCCC1)CCS(=O)(=O)CCN1CCCCC1 | inconclusive [inhibitor, partial curve, poor fit] | 
COc1ccc(NC(=O)Cn2c(=O)n(Cc3ccc(C(=O)NCc4ccccc4Cl)cc3)c(=O)c3ccccc32)cc1OC | inconclusive [inhibitor, partial curve] | 
CC1CCCN(S(=O)(=O)c2cc(C(=O)NCc3ccco3)ccc2Cl)C1 (stereo not given) | inconclusive [inhibitor, single point] | 
Cc1cc(S(=O)(=O)N2CCOCC2)ccc1OCC(=O)NCC1CCCO1 (stereo not given) |  | inactive: -6.11%
C=CCn1c(-c2sc(-c3ccccc3)nc2C)n[nH]c1=S | inconclusive [inhibitor, single point] | 
CC(=O)Nc1ccc(OCCOc2ccc(/C=C3/C(=N)N4C=CSC4=NC3=O)cc2)cc1 | active: 20.6 µM | 
COc1ccc(NC(=O)CSc2nc(-c3ccco3)cc(C(F)(F)F)n2)cc1 | inconclusive [inhibitor, partial curve] | 
CCCn1c(=O)c2[nH]c(-c3ccc(OCC(=O)Nc4ccc(C#N)cc4)cc3)nc2n(CCC)c1=O |  | inactive: -28.7%
COc1ccc(OC)c(/C=N/c2c(-c3ccc(O)c(OC)c3)nc3ccccn23)c1 |  | inactive: 1.04%
O=C(c1ccc2nc[nH]c2c1)N1CCN(c2cccc(C(F)(F)F)c2)CC1 | inconclusive [inhibitor, single point] | 
OC(c1ccc(Cl)c(F)c1)c1ncc(-c2ccccc2F)[nH]1 (stereo not given) | active: 16.4 µM | 
CC1CCN(C(=O)C2CCCN(S(=O)(=O)c3ccc4c(c3)CC(C)N4C(=O)C3CC3)C2)CC1 (stereo not given) | inconclusive [inhibitor, single point] | 
Cc1cc(C)nc(SCCc2ccncc2)n1 | inconclusive [inhibitor, single point] | 
COc1ccc2c(c1)CC/C(=C\C=C\c1ccccc1OC)C2=O | inconclusive [inhibitor, single point] | 
COc1ccc(CCNC(=O)c2cc(-c3ccncc3)nc3c(Cl)cccc23)cc1OC | active: 20.6 µM | 
CC1(C(=O)Nc2ccc(F)cc2F)CCN1C(=O)Cc1ccc(Cl)cc1Cl (stereo not given) | inconclusive [inhibitor, single point] | 
COCCN(C(=O)COc1ccccc1C#N)c1c(N)n(Cc2ccccc2)c(=O)[nH]c1=O |  | inactive: -19.5%
CC(C)CC(COCc1cccc(Cl)c1)N1CCN(C(=O)c2ccc(C(F)(F)F)cc2)CCC1=O (stereo not given) | inconclusive [inhibitor, single point] | 
Cc1ccc2c(c1)N(C(=O)CCC(=O)NCCCN1CCOCC1)CC(C)O2 (stereo not given) |  | inactive: 16.7%
CC1(C(=O)NS(=O)(=O)c2cccc(Cl)c2)CCN1C(=O)CCc1ccc(Cl)cc1Cl (stereo not given) |  | inactive: -20.6%
CCOC(=O)c1cnc2c(-c3ccccc3OC)c(C)nn2c1C | inconclusive [inhibitor, single point] | 
Cc1ccc(-n2ncc3c(NCCCn4ccnc4)ncnc32)cc1Cl | active: 20.6 µM | 

Compound | Potency | activity change, negative = growth inhibition
COc1ccc(CC(=O)NCC(c2ccc(N(C)C)cc2)N2CCOCC2)cc1 (stereo not given) | inconclusive [inhibitor, single point] | 
Cc1ccc(N2CCN(C(=O)c3cc(-c4ccc(F)cc4)[nH]c3C)CC2C)cc1 (stereo not given) | inconclusive [inhibitor, single point] | 
Nc1c(C(=O)N2CCCC2)sc2nc3c(cc12)CCCCCC3 | inconclusive [inhibitor, single point] | 
CC(C)=C[C@@H]1C[C@H](C)[C@H]2CC[C@H](C)c3c(O)c(O)c(C)c1c32 | active: 20.6 µM | 
CCC[N+](CC#Cc1ccccc1)(CCC)CC(=O)c1ccc(Cl)cc1 | inconclusive [inhibitor, single point] | 
Cc1cc(C)nc(/N=C(/NC(=O)Nc2cccc(Cl)c2)Nc2ccccc2)n1 | inconclusive [inhibitor, single point] | 
COC(=O)c1cnc(NCc2ccc(F)cc2)c2ccccc12 |  | inactive: -29%
Cc1cc(F)ccc1S(=O)(=O)Nc1ccc2c(c1)CCCN2C(=O)c1cccs1 | active: 20.6 µM | 
Cc1ccc(-c2cc3nn(-c4ccccc4)c(N)c3c(=O)o2)cc1 | inconclusive [inhibitor, single point] | 
Cc1ccc(Nc2c(N)c(=O)oc3ccccc23)cc1 | inconclusive [inhibitor, single point] | 
CC(=O)Nc1nnc(-c2ccco2)o1 |  | inactive: 15.2%
CCOC(=O)Cc1ccc(NC(=O)NCc2cccn2Cc2ccccc2)cc1 | active: 13 µM | 
O=C1c2[nH]nc(-c3ccccc3O)c2C(c2ccccc2F)N1Cc1ccncc1 (stereo not given) | inconclusive [inhibitor, single point] | 
NC(=O)COCCN1CCN(C(c2ccccc2)c2ccc(Cl)cc2)CC1 (stereo not given) | inconclusive [inhibitor, single point] | 
Cc1cccn2c(=O)c3cc(C(=O)NCCN4CCOCC4)c(=N)n(Cc4ccc(F)cc4)c3nc12 | active: 7.31 µM | 
COc1cccc(C2CC(c3cccs3)=NN2C(=O)CSc2nc3ccccc3s2)c1OC (stereo not given) | active: 14.6 µM | 
O=C(NNC(=O)c1ccc(O)cc1O)c1ccc(-c2ccccc2)cc1 | inconclusive [inhibitor, single point] | 
CCOc1ccc(NC(=O)CSc2nnc(C)n2C2CC2)cc1S(=O)(=O)N1CCCC1 |  | inactive: -15.7%
CCOC(=O)c1ccn(S(=O)(=O)c2ccc(C)cc2)c1-c1ccccc1 | inconclusive [inhibitor, single point] | 
Cc1cc(C)c2[nH]c(=O)c(CN(CC3CCCO3)C(=S)Nc3ccccc3)cc2c1 (stereo not given) | inconclusive [inhibitor, partial curve] | 
CCC(=O)/C=C1/Sc2ccc(OC)cc2N1CC | active: 10.3 µM | 
CN(c1ccccc1)S(=O)(=O)c1ccc(C(=O)NCc2ccccn2)cc1 | inconclusive [inhibitor, single point] | 
